From PubChem BioAssay AID1468 (National Center for Advancing Translational Sciences (NCATS), 2008)
The whole screen tested about 280,000 compounds, of which about 1,100 (0.39%) were called active. Inconclusive means that the source gave no clear call. Such entries were picked first, then a sample of the others. Calls follow the shape of the dose curve; as a rule, active = well fitted inhibition curve with a large enough effect; inconclusive = small, poorly fitted or top-dose-only effect, or effect the other way; inactive = flat fitted curve, though single readings scatter. Potencies of inconclusive entries are left out as doubtful fits.

target: Microtubule-associated protein tau (Homo sapiens) (UniProt P10636); assay: qHTS for Inhibitors of Tau Fibril Formation, Fluorescence Polarization; conditions: K18 P301L tau heparin fibrillization, Alexa594 FP, 6 h; series mostly up to 57.7 µM; also: nearly all actives have a fitted effect of over 55% in size
Outline: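 Human K18 P301L fragment (15 uM unlabeled plus 0.24 uM Alexa 594-labeled) in 100 mM sodium acetate pH 7 with compound, aggregation induced by 20 uM heparin for 6 hr at 37 C. ThT (30 uM) added for 1 hr, then Alexa 594 FP read.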
% is scaled to controls: 0 for no effect and ±100 for the full control effect; potency is read from the fitted curve at half-maximal effect; tags tell the direction and shape of the fitted curve.

Chain of UniProt P10636 (P10636 whole entry, looked up, the tested form may be a part): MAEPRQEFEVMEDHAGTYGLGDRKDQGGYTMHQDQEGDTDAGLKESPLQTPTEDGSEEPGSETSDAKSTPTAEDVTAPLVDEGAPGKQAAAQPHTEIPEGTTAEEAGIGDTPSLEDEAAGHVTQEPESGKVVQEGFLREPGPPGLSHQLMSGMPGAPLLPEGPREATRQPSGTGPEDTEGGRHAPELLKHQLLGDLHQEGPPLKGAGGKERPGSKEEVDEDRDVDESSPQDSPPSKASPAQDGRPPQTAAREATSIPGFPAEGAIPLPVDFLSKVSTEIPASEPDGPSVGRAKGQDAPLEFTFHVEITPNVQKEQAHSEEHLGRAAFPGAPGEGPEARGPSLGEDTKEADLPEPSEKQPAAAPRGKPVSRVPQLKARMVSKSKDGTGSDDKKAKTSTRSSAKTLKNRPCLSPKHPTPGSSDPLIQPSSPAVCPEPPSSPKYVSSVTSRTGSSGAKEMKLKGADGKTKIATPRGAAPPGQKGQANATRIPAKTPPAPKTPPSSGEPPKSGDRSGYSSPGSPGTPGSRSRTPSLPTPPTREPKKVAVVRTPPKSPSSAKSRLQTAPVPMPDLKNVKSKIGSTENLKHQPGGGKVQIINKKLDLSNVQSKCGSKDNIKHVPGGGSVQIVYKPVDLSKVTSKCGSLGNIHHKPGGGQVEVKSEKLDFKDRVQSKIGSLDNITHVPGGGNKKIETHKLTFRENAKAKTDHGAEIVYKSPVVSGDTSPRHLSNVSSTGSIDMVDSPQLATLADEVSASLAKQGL

Q: For `CCOC(=O)C(NC(C)=O)(N1CCc2ccccc2C1)C(F)(F)F` (stereo unspecified), which Potency is on record?
A: inconclusive [inhibitor, partial curve]

Q: For `CC(=O)Nc1ccc(S(=O)(=O)Oc2ccc(/C=C3\SC(N)=NC3=O)cc2)cc1`, which Potency is on record?
A: active: 25.1 µM

Q: With `Cc1cc(C(=O)Nc2ccc(N3CCCC3)c(Cl)c2)ccc1[N+](=O)[O-]` as the molecule, how does the Potency read?
A: inactive

Q: With `CC1(C)N([O-])C2=C(CCCC2)[N+]1=O` as the molecule, how does the Potency read?
A: inconclusive [inhibitor, partial curve, poor fit]

Q: Which Potency does the source give for `O=C1/C(=C\c2ccc(-c3ccccc3Cl)o2)SC(=S)N1CC1CCCO1` (stereo unspecified) here?
A: inactive

Q: `CC(C)c1ccc(NC(=O)Cn2cc(S(=O)(=O)Cc3cccc(Cl)c3)c3ccccc32)cc1` was tested. Which Potency did it give?
A: inconclusive [inhibitor, partial curve]

Q: For `Cc1nc(N2CCCCC2)c2c(C)c(C(=O)Nc3cccc(C(F)(F)F)c3)sc2n1`, which Potency is on record?
A: inconclusive [inhibitor, partial curve]

Q: `CC(=O)c1ccc(OC(C)C)c(Cc2c(O)nc(N)[nH]c2=O)c1` was tested. Which Potency did it give?
A: inconclusive [inhibitor, partial curve]

Q: With `Cc1[nH]n(-c2ncc(-c3ccc(Cl)cc3)s2)c(=O)c1C(c1ccc(Cl)cc1)C(C#N)C#N` (stereo unspecified) as the molecule, how does the Potency read?
A: active: 39.8 µM

Q: How did the Potency turn out when `O=C(COc1ccccc1)N1CCc2ccccc21` was run?
A: inconclusive [activator, full curve, poor fit]

Q: For `CCN(CC)CCCN1C=C2C(=O)C(C)(OC(=O)CCC(=O)OC)C(=O)C(Br)=C2C=C1c1ccc(OC)cc1` (stereo unspecified), which activity, negative = inhibition is on record?
A: inactive: -7.29% [at 11.6 µM]

Q: How did the Potency turn out when `COC(=O)c1ccc2c(c1)N(CC(=O)Nc1ccc(OC)c(Cl)c1)C(=O)c1ccccc1S2` was run?
A: inconclusive [inhibitor, partial curve]

Q: How did the Potency turn out when `COc1ccc2c(c1OC)C(=O)OC2Nc1nc(-c2ccccc2)cs1` (stereo unspecified) was run?
A: active: 31.6 µM

Q: `O=C(O)/C=C/C(=O)Nc1ccccc1-c1ccccc1NC(=O)/C=C/C(=O)O` was tested. Which Potency did it give?
A: inconclusive [inhibitor, partial curve]

Q: With `COc1ccc(-c2cn3nc(N4CCCC(C(=O)Nc5cccc(OC)c5)C4)sc3n2)cc1` (stereo unspecified) as the molecule, how does the Potency read?
A: inconclusive [activator, single point]

Q: `O=C(O)Cn1cc(C(=S)N2CCCCC2)c2ccccc21` was tested. Which Potency did it give?
A: inconclusive [inhibitor, partial curve, poor fit]

Q: Which Potency does the source give for `CC(C)(C)c1ccc(C(=O)NCCC(=O)NCc2ccco2)cc1` here?
A: inconclusive [activator, full curve]

Q: Which Potency does the source give for `Cc1cc(O)ccc1N/C=C1\CCCC1=O` here?
A: inconclusive [inhibitor, single point]

Q: With `N#C/C(C(=O)Oc1ccccc1)=C1\C=Cc2ccccc2N1` as the molecule, how does the Potency read?
A: inconclusive [inhibitor, single point]

Q: `CCN(c1ccccc1)S(=O)(=O)c1nnc(NC(=O)c2ccccc2)s1` was tested. Which Potency did it give?
A: inactive

Q: Which Potency does the source give for `O=C1N=C(c2ccccc2)C(c2ccccc2)N1` (stereo unspecified) here?
A: inconclusive [inhibitor, single point]

Q: Which Potency does the source give for `CC(C)(C)OC(=O)C(Cl)(C(=O)OC(C)(C)C)c1ccc2nnnn2n1` here?
A: inconclusive [inhibitor, partial curve, poor fit]

Q: `O=C(Nc1ccccc1C(F)(F)F)c1cc(-c2ccc3c(c2)OCCO3)on1` was tested. Which Potency did it give?
A: inconclusive [inhibitor, single point]

Q: How did the Potency turn out when `Cc1ccn2c(c1)nc(=S)n2C(=O)c1ccco1` was run?
A: inconclusive [inhibitor, single point]

Q: `N#C/C(=C\c1ccc(Sc2ccc(Cl)cc2)o1)c1nc2ccccc2[nH]1` was tested. Which Potency did it give?
A: inconclusive [inhibitor, partial curve, poor fit]

Q: How did the Potency turn out when `Cc1ccc(CN(Cc2cc3cc4c(cc3[nH]c2=O)OCCO4)Cc2nnnn2Cc2ccco2)cc1` was run?
A: inconclusive [inhibitor, single point]

Q: For `Cc1ccc(NC(=O)C(C)OC(=O)c2ccc(NS(=O)(=O)c3ccc(F)c(F)c3)cc2)cc1` (stereo unspecified), which Potency is on record?
A: inconclusive [inhibitor, single point]

Q: How did the Potency turn out when `COc1ccc2nc(N3C(=O)CC(Cc4cc(C)cc(C)c4)C3=O)sc2c1` (stereo unspecified) was run?
A: inconclusive [inhibitor, partial curve]

Q: Which Potency does the source give for `Cc1cccc2cc(CN(Cc3ccco3)C(=O)c3ccncc3)c(=O)[nH]c12` here?
A: inactive

Q: Which Potency does the source give for `CC(C)(C)c1nnc(NC(=O)C2c3ccccc3Oc3ccccc32)s1` here?
A: active: 15.8 µM

Q: For `CCOC(=O)c1c(S(=O)(=O)N2CCCC(C(=O)NCc3ccccc3Cl)C2)c(C)n(C)c1C` (stereo unspecified), which Potency is on record?
A: inactive

Q: Which Potency does the source give for `CCOC(=O)c1ccc(NC(=O)c2cccc(S(=O)(=O)N3CCOCC3)c2)cc1` here?
A: inconclusive [inhibitor, single point]

Q: How did the Potency turn out when `CC(C)C[C@H](NC(=O)c1nc[nH]c1C(=O)NCc1ccccc1)C(=O)OCc1ccccc1` was run?
A: inconclusive [inhibitor, single point]

Q: For `C#CCOCCOCCOCCNc1nc(N2CCN(C(=O)[C@H]([C@@H](C)CC)n3cc(CCCN=C(N)N)nn3)CC2)nc(N2CCN(C(=O)[C@H]([C@@H](C)CC)n3cc(CCCN=C(N)N)nn3)CC2)n1`, which Potency is on record?
A: inactive

Q: Which Potency does the source give for `O=C(/C=C/c1ccco1)Nc1cccc(NC(=O)/C=C/c2ccco2)n1` here?
A: inconclusive [inhibitor, partial curve]

Q: `Cc1cccc(NC(=O)CCCn2c(=S)[nH]c3ccccc3c2=O)c1` was tested. Which Potency did it give?
A: inconclusive [inhibitor, single point]

Q: `COc1cc(/C=N/O)cc(Br)c1OCc1cccc(Cl)c1` was tested. Which Potency did it give?
A: inconclusive [inhibitor, partial curve]

Q: Which Potency does the source give for `Cc1ccc(S(=O)(=O)Nc2ccc(Cl)cc2)cc1NC(=O)c1cc2c(s1)CCCC2` here?
A: inconclusive [inhibitor, single point]

Q: With `COc1cc(/C=N/NC(=O)COc2ccc(Cl)cc2)ccc1OS(=O)(=O)c1ccc(C)cc1` as the molecule, how does the Potency read?
A: inconclusive [inhibitor, partial curve]

Q: With `Cc1ccc(OCC(=O)NCc2ccco2)cc1C` as the molecule, how does the Potency read?
A: inactive

Q: `COc1ccc(C(=O)NNC(=O)c2ccc(S(=O)(=O)N3CC(C)OC(C)C3)cc2)cc1` (stereo unspecified) was tested. Which Potency did it give?
A: inconclusive [inhibitor, single point]

Q: For `Nn1c(SCC(=O)N2CCc3ccccc3C2)nnc1-c1cccs1`, which Potency is on record?
A: inconclusive [inhibitor, single point]

Q: Which Potency does the source give for `Cc1ccc2oc(C(=O)Nc3ccc(S(=O)(=O)N(C)c4ccccc4)cc3)cc(=O)c2c1` here?
A: inconclusive [inhibitor, partial curve]

Q: `O=[N+]([O-])c1ccc2[nH]nc(-c3ccccc3)c2c1` was tested. Which Potency did it give?
A: inconclusive [inhibitor, partial curve]

Q: Which Potency does the source give for `O=C(Nc1ccc(Cl)cc1)c1csc(-c2ccccc2)n1` here?
A: inconclusive [inhibitor, partial curve, poor fit]

Q: With `Cc1ccc(C(=O)COC(=O)CNC(=O)COc2ccccc2C)cc1C` as the molecule, how does the Potency read?
A: inactive

Q: For `Cc1nn(-c2ccccc2)c2c1cc1c(=O)[nH]c(=O)nc-1n2-c1cccc(Cl)c1`, which Potency is on record?
A: inactive

Q: How did the Potency turn out when `Cc1ccc(S(=O)(=O)N/N=C/c2ccc(OCC(=O)Nc3ccccc3Cl)cc2)cc1` was run?
A: inconclusive [inhibitor, single point]

Q: With `CC(=O)Nc1ccc2c(c1)OCCOCCOc1cc(NC(C)=O)ccc1OCCO2` as the molecule, how does the Potency read?
A: inactive

Q: How did the Potency turn out when `COc1ccccc1NC(=O)CSc1nnc(NC(=O)NC2CCCCC2)s1` was run?
A: inconclusive [inhibitor, partial curve, poor fit]

Q: `Cc1occc1C(=O)N/N=C/C(Br)=C\c1ccccc1` was tested. Which Potency did it give?
A: inconclusive [inhibitor, single point]

Q: How did the Potency turn out when `Cc1ccc(S(=O)(=O)CCC(=O)Nc2ccc(OC(F)(F)F)cc2)cc1` was run?
A: inactive

Q: With `NS(=O)(=O)c1ccc(N=Nc2c[nH]c(=O)c(O)c2)cc1` as the molecule, how does the Potency read?
A: inconclusive [inhibitor, partial curve]

Q: With `Cc1cnc(CNc2cc(-c3ccoc3)ncn2)cn1` as the molecule, how does the Potency read?
A: inconclusive [inhibitor, partial curve]

Q: How did the Potency turn out when `Cc1occc1-c1n[nH]c(=S)n1CC(C)C` was run?
A: inactive

Q: How did the Potency turn out when `Cc1ccc(NC(=O)Cn2nnc3sc4c(c3c2=O)CCC(C)C4)cc1` (stereo unspecified) was run?
A: inconclusive [inhibitor, single point]

Q: `CCc1ccc(S(=O)(=O)c2nnn3c2nc(Nc2ccc(C)c(Cl)c2)c2sccc23)cc1` was tested. Which Potency did it give?
A: inconclusive [inhibitor, partial curve]

Q: For `Clc1ccc(Nc2ccc(-n3ccnc3)nn2)cc1Cl`, which Potency is on record?
A: inconclusive [inhibitor, single point]

Q: `COCCCn1c(=N)c(C(=O)NCc2ccco2)cc2c(=O)n3cccc(C)c3nc21` was tested. Which Potency did it give?
A: inactive

Q: Which Potency does the source give for `CSc1cccc(NC(=O)Cn2c(=O)n(Cc3ccccc3)c(=O)c3sc4ccccc4c32)c1` here?
A: inconclusive [inhibitor, full curve]

Q: Which Potency does the source give for `Cc1ccc(NC(=S)N=Nc2c(O)n(C)c3ccc(S(=O)(=O)N4CCOCC4)cc23)cc1` here?
A: inconclusive [activator, partial curve]

Q: How did the Potency turn out when `Fc1cccc(Cl)c1CNn1cn[nH]c1=S` was run?
A: inactive

Q: How did the Potency turn out when `Cc1ccc(C(=O)Nc2ccccc2)cc1S(=O)(=O)Nc1ccc(Br)cc1` was run?
A: active: 15.8 µM

Q: `Cc1ccc(Cl)cc1NC(=S)N(Cc1cccnc1)Cc1ccccc1Cl` was tested. Which Potency did it give?
A: inactive

Q: How did the Potency turn out when `COc1cc([N+](=O)[O-])cc(/C=N/NC(=O)CC#N)c1O` was run?
A: inconclusive [activator, single point]

Q: With `O=C(Nc1ccc2nc(SCC(=O)N3CCc4ccccc43)sc2c1)c1cccc(F)c1` as the molecule, how does the Potency read?
A: inconclusive [inhibitor, partial curve]
